Numbering of substitutions follows the chain as printed.
Target: T1, Rhesus GIPR (rhesus, UniProt F7E1R9 22-466)
T1 sequence: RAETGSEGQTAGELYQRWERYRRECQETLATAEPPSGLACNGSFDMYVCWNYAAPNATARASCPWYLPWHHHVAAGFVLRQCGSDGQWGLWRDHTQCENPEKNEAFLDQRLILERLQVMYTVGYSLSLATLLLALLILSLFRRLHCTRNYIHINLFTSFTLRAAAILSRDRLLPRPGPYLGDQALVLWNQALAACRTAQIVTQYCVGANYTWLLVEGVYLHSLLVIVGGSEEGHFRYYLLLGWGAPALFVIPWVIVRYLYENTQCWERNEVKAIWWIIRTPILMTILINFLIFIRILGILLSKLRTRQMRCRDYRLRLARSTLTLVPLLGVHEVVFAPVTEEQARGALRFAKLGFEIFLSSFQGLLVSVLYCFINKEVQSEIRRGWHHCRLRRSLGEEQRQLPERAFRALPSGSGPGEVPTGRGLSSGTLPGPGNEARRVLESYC
Assay: cell-based or functional assay

B1: 6A5.004.001 (antibody, human IgG1, kappa, N297G)
heavy: QVQLVESGGGVVQPGRSLRLSCAASGFSFSSYGMHWVRQPPGKGLEWVAAIWYDANNKYYADAVKGRFTISRDSSKNTLYLQMNSLRAEDTAVYYCARDRTIFGVVLEYWGQGTLVTVSSASTKGPSVFPLAPSSKSTSGGTAALGCLVKDYFPEPVTVSWNSGALTSGVHTFPAVLQSSGLYSLSSVVTVPSSSLGTQTYICNVNHKPSNTKVDKKV[human IgG1 Fc with R292C N297G V302C (EU numbers) not written out]
light: DIQMTQSPSSLSASVGDRVTITCQASQDITNYLNWYQQKPGKAPKLLIYDASNLEPGVPSRFSGSGSGTDFTLTISSLQPEDFATYYCQQYDDLFTFGPGTKVDIKRTVAAPSVFIFPPSDEQLKSGTASVVCLLNNFYPREAKVQWKVDNALQSGNSQESVTEQDSKDSTYSLSSTLTLSKADYEKHKVYACEVTHQGLSSPVTKSFNRGEC
Rhesus GIPR CAMP Assay (Conc. mAb @ 60% Inhibition in nM): 0.9 nM

B2: 6A5.004.002 (antibody, human IgG1, kappa, N297G)
heavy: B1 heavy
light: B1 light with F83I
Rhesus GIPR CAMP Assay (Conc. mAb @ 60% Inhibition in nM): 0.88 nM

B3: 6A5.004.003 (antibody, human IgG1, kappa, N297G)
heavy: B1 heavy with W110L
light: B1 light
Rhesus GIPR CAMP Assay (Conc. mAb @ 60% Inhibition in nM): 0.78 nM

B4: 6A5.004.004 (antibody, human IgG1, kappa, N297G)
heavy: B1 heavy
light: B1 light with L73F
Rhesus GIPR CAMP Assay (Conc. mAb @ 60% Inhibition in nM): 0.97 nM

B5: 6A5.004.005 (antibody, human IgG1, kappa, N297G)
heavy: B1 heavy with W110L
light: B1 light with F83I
Rhesus GIPR CAMP Assay (Conc. mAb @ 60% Inhibition in nM): 0.62 nM

B6: 6A5.004.006 (antibody, human IgG1, kappa, N297G)
heavy: B1 heavy with W110L
light: B1 light with L73F
Rhesus GIPR CAMP Assay (Conc. mAb @ 60% Inhibition in nM): 0.77 nM

B7: 6A5.004.010 (antibody, human IgG1, kappa, N297G)
heavy: B1 heavy
light: B1 light with P99Q
Rhesus GIPR CAMP Assay (Conc. mAb @ 60% Inhibition in nM): 0.81 nM

B8: 5C2.012 (antibody, human IgG1, kappa, N297G)
heavy: QVPLVQSGAEVKKPGASVKVSCKASGYTFTGYYIHWVRQAPGQGLEWMGWINPDSGGTDYSQRFQGRVTMTRDTSISTAYMELNRLRSDDTAVYYCAREATIFGMVIVPFDYWGQGTLVTVSSASTKGPSVFPLAPSSKSTSGGTAALGCLVKDYFPEPVTVSWNSGALTSGVHTFPAVLQSSGLYSLSSVVTVPSSSLGTQTYICNVNHKPSNTKVDKKV[human IgG1 Fc with R292C N297G V302C (EU numbers) not written out]
light: DIVMTQSPDSLAVSLGERATINCKSSQSVLSSSNNKNYIAWYQQQPGHPPKLLIYWASTRESGVPDRFSGSGSGTDFTLTISSLQAEDVAVFYCQQYYSTPWTFGQGTKVEIKRTVAAPSVFIFPPSDEQLKSGTASVVCLLNNFYPREAKVQWKVDNALQSGNSQESVTEQDSKDSTYSLSSTLTLSKADYEKHKVYACEVTHQGLSSPVTKSFNRGEC
Rhesus GIPR CAMP Assay (Conc. mAb @ 60% Inhibition in nM): 0.65 nM

B9: 5C2 (antibody, human IgG1, kappa, N297G)
heavy: B8 heavy with V68F
light: B8 light
Rhesus GIPR CAMP Assay (Conc. mAb @ 60% Inhibition in nM): 0.53 nM

B10: 5C2.009 (antibody, human IgG1, kappa, N297G)
heavy: B8 heavy with S55A, V68F
light: B8 light
Rhesus GIPR CAMP Assay (Conc. mAb @ 60% Inhibition in nM): 0.6 nM

B11: 5C2.013 (antibody, human IgG1, kappa, N297G)
heavy: B8 heavy with P3Q, S55A, V68F
light: B8 light
Rhesus GIPR CAMP Assay (Conc. mAb @ 60% Inhibition in nM): 7.02 nM

B12: 5C2.014 (antibody, human IgG1, kappa, N297G)
heavy: B8 heavy with S55A
light: B8 light
Rhesus GIPR CAMP Assay (Conc. mAb @ 60% Inhibition in nM): 0.54 nM

— patent US20250376529A1 (Amgen, published 2025)
